From PubChem BioAssay AID894 (National Center for Advancing Translational Sciences (NCATS), 2007)
“And” between values parts separate entries of the source, which are not always exact repeats. Equal entries are not always repeated. In all, about 150,000 compounds went through this assay and about 6,500 (4.3%) were called active. This list was built around the results that the source calls inconclusive (neither active nor inactive); the mix of calls is not that of the screen. Calls follow the shape of the dose curve; as a rule, active = well fitted inhibition curve with a large enough effect (not every such curve was filed as active); inconclusive = small, poorly fitted or top-dose-only effect, or another doubt; inactive = no such curve, though single readings can be large or run the other way. A potency beside an inconclusive call is a rough fit, not a confirmed value.

Target: 15-hydroxyprostaglandin dehydrogenase [NAD(+)] (Homo sapiens) (UniProt P15428)
Experiment: qHTS Assay for Inhibitors of HPGD (15-Hydroxyprostaglandin Dehydrogenase)
Conditions: purified HPGD, NADH fluorescence kinetic, PGE2 substrate; activity change, negative = inhibition: active compounds read low
In short: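 20 nM HPGD preincubated 15 min at room temperature with compound in 50 mM Tris-HCl pH 8, 0.01% Tween 20. Started with 1 mM NAD+ and 30 uM prostaglandin E2; NADH fluorescence (360/450 nm) read 5 times over 30-s intervals, last minus first.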
% is scaled to controls: 0 for no effect and ±100 for the full control effect; potency is read from the fitted curve at half-maximal effect; tags tell the direction and shape of the fitted curve.

UniProt P15428, sequence (P15428 whole entry, looked up): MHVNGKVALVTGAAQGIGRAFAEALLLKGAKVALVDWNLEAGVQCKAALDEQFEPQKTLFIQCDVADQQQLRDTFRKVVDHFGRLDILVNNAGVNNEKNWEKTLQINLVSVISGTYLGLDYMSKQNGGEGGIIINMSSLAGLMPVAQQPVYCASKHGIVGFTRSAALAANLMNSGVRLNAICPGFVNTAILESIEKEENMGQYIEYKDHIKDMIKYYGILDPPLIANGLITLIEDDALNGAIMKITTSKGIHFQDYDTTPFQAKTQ

Activity change, negative = inhibition, inactive:
CS(=O)(=O)N1CCC2(CC1)CN(C(c1ccccc1)c1ccccc1)C2 -11.2%, Cc1ccc(-n2c(C)cc(=O)cc2C)c(C)c1 -6.37%, Cc1cc(C(=O)OCC(=O)Nc2ccccc2[N+](=O)[O-])c2ccccc2n1 -18.8%, Cc1ccc(CSCCNC(=O)c2cccc([N+](=O)[O-])c2)cc1 -13.1%, CC(C)(C)N1CC(COc2ccccc2)OC1=O (stereo unspecified) -5.93%, COC(=O)c1cc(OC)c(OC)cc1NC(=O)c1ccco1 -18.6%, COc1cc2c(C(=O)N3CCN(Cc4ccc5c(c4)OCO5)CC3)cn(C)c(=O)c2cc1OC -13%, CCc1onc(C)c1C(=O)Nc1cc(C)ccc1OC -7.7%, Cc1ccc(C)c(C(=O)N(Cc2nc(-c3ccc(Cl)cc3)no2)C(C)C)c1 -17.7%, Cc1cccc(CN2CCN(CC(=O)NCCCN3CCN(c4ccc(F)cc4)CC3)C2=O)c1 -2.43%, CCCc1cc(=O)[nH]c(SCC(=O)Nc2ccc(OC(F)F)cc2)n1 -20.3%, O=C(O/N=C1\CCS(=O)(=O)c2sccc21)c1ccccc1 -16.3%, CC1CC(OC(=O)c2ccccc2O)CC(C)(C)C1 (stereo unspecified) 0.585% and -22%, COc1ccc(CN2CCN(CC(O)Cn3c4ccccc4c4ccccc43)CC2)cc1 (stereo unspecified) -7.74%, COc1ccc(/C=N/NS(=O)(=O)c2ccccc2)cc1OS(=O)(=O)c1ccccc1 -6.11%, COc1cc(-c2nnc(SC(C)C(=O)Nc3c(C)n(C)n(-c4ccccc4)c3=O)o2)cc(OC)c1OC (stereo unspecified) 0.0459%, O=C1c2ccccc2C(=O)N1CCC(c1ccc(F)cc1)c1ccco1 (stereo unspecified) -8.61%, COc1ccc(N(C(=O)c2ccco2)C(C(=O)NC2CCCC2)c2ccc(N(C)C)cc2)cc1 (stereo unspecified) -3.59%

Potency, active:
Cc1c(Br)c([N+](=O)[O-])nn1CCCC(=O)Nc1sc2c(c1C#N)CCC2 12.6 µM, COc1ccc(N2CSC3=C(C#N)C(c4cccc(OC)c4OC)CC(=O)N3C2)cc1 (stereo unspecified) 8.91 µM, CC(=O)c1ccc(Oc2ncnc3sccc23)c(CN2CCOCC2)c1 25.1 µM, COC(=O)c1sc(N)c(C(=O)OC)c1COC(=O)c1c(C)noc1C 17.8 µM, Oc1ccc(Br)cc1-c1cc(-c2ccccc2)n[nH]1 25.1 µM

Potency, inconclusive:
Cc1ccc(NC(=O)CSc2ncc(-c3ccccc3)n2C(=O)c2ccccc2)cc1 15.8 µM [inhibitor, partial curve], Cc1cc(C(=O)O)c(=O)[nH]c1C 31.6 µM [inhibitor, single point], O=C(NC1CCCCC1)C(c1cc2c(cc1[N+](=O)[O-])OCO2)N1CCCCC1 (stereo unspecified) 22.4 µM [inhibitor, partial curve], Cc1cccc(NC(=S)NNC(=O)COc2ccc(Cl)cc2Cl)c1 15.8 µM [inhibitor, partial curve], CCOC(=O)c1cccc(-c2ccc(C=O)o2)c1 17.8 µM [inhibitor, partial curve], COc1ccc(-c2cc(=O)oc3cc(OC(C)C(=O)O)ccc23)cc1 (stereo unspecified) 14.1 µM [inhibitor, partial curve], CCn1ncc(Br)c1C(=O)Nc1sc2c(c1C(N)=O)CCC2 28.2 µM [inhibitor, partial curve], COCCNC(=O)CSc1nc2ccc(N3CCOCC3)cc2c(=O)n1Cc1ccc(OC)cc1 28.2 µM [inhibitor, partial curve], COc1cc(/C=N/NC(=O)CSCc2ccc([N+](=O)[O-])cc2)cc(OC)c1OC 22.4 µM [inhibitor, partial curve], Cc1c(Cc2ccccc2)c(=O)oc2c(CN(C)C)c(O)c(Cl)cc12 25.1 µM [inhibitor, partial curve], Nc1nc(-c2ccc(Cl)c(Cl)c2)c(-c2ccncc2)s1 15.8 µM [inhibitor, partial curve], COc1cccc2sc(Nc3nnc(-c4ccc(F)cc4)o3)nc12 17.8 µM [inhibitor, partial curve], Brc1ccc(-c2csc(N/N=C/c3ccc4c(c3)OCO4)n2)cc1 17.8 µM [inhibitor, partial curve], COc1ccccc1CSc1ncc(-c2ccc([N+](=O)[O-])cc2)[nH]1 20 µM [inhibitor, partial curve], O=C(NCc1ccco1)c1ccc(OCC2CCCO2)cc1 (stereo unspecified) 35.5 µM [inhibitor, partial curve], CC1(C)Cc2c(sc3nn[nH]c(=O)c23)CO1 35.5 µM [inhibitor, single point], Cc1ccc(-c2nc3ccccn3c2NCc2ccc3c(c2)OCO3)cc1 31.6 µM [inhibitor, partial curve], COC(=O)c1cc(CNC(=O)c2cccc(Cl)c2Cl)ccc1OC 22.4 µM [inhibitor, partial curve], CCOC(=O)Cc1csc(NC(=O)CSc2nc(C)cc(=O)[nH]2)n1 14.1 µM [inhibitor, partial curve], O=C(CCN1C(=O)C2CC=CCC2C1=O)N1CCN(c2ccccn2)CC1 (stereo unspecified) 25.1 µM [inhibitor, partial curve, poor fit], Fc1ccccc1N1CCN(c2nc3ccccc3n3nnnc23)CC1 28.2 µM [inhibitor, partial curve], Cc1ccc2c(c1)c1ncn(CCC3=CCCCC3)c(=O)c1n2C 35.5 µM [inhibitor, single point], COC(=O)N1C2=C(c3ccccc3[C@@H]1CC(=O)Nc1ccc3ccc4cccc5ccc1c3c45)[C@@H]1C(=O)N(c3ccccc3)C(=O)[C@@H]1[C@H](C)C2 3.16 µM [inhibitor, partial curve]
